This passage reports z-score results from PubChem BioAssay AID488969 (Vanderbilt High Throughput Screening Facility, 2010).

Over roughly 110,000 compounds, “z-score” has its median near -0.1; the highest 2% begin near 2. The list shows a part of the results. The source made the active and inactive calls.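 Rule for the calls: active = z-score in the third read window above 3 or below -3; inactive = the rest.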

The test has as its target Metabotropic glutamate receptor 8 (Rattus norvegicus) (UniProt P70579). The experiment in a line: rat mGluR8 modulators via GIRK flux, primary screen, cell-based, thallium flux, HTS (AID 488969). The conditions noted are these: HEK293 rat mGluR8, GIRK (G protein-gated inwardly rectifying potassium channel) thallium flux, FluoZin2; at 10 µM; stronger effect = higher value; submaximal glutamate (EC20) added with thallium.
Chain of UniProt P70579 (P70579 whole entry, looked up): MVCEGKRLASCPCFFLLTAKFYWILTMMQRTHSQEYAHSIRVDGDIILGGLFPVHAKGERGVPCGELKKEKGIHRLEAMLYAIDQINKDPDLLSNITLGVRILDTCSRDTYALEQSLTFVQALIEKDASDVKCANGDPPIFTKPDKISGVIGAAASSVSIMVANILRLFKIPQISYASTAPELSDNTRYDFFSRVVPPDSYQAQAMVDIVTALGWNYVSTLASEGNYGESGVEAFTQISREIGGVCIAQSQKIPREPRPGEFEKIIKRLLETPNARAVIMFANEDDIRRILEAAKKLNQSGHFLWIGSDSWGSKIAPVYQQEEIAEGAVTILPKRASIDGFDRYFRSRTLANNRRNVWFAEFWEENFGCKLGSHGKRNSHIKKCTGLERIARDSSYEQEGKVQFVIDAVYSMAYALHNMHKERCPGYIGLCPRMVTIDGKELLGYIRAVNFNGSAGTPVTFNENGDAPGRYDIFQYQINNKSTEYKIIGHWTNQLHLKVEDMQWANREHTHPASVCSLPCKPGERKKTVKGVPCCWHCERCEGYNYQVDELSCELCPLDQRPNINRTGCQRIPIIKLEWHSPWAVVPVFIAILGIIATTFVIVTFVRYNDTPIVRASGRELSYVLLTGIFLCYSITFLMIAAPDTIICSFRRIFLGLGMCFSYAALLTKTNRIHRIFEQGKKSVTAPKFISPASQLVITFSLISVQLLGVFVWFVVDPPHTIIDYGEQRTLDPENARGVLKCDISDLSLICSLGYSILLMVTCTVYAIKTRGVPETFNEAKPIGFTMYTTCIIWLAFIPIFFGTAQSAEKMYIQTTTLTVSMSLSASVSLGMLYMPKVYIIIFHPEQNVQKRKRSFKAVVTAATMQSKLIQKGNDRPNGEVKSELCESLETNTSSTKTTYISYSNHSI
Turning to `CSCCC(NC(=O)c1ccccc1)C(=O)N/N=C(\C)c1ccccc1` (stereo unspecified), the z-score is -0.429.

`COc1cccc(/C=N/NC(=O)c2ccc(COc3ccc(Cl)cc3Cl)o2)c1`: the z-score was 0.119.

Take `COc1ccc(Cn2nnnc2C(C(C)C)N(Cc2ccco2)Cc2cccs2)cc1` (stereo unspecified): the z-score is -0.42.

For the compound `Cc1ccc2cc3c(NC(=O)C(C)C)nn(C)c3nc2c1`, the z-score came out at 0.352.

`COC(=O)c1ccc(Cn2nc(C)cc2C)cc1` showed a z-score of 0.0799.

Compound `Cc1ccc(CN2C(=O)CCC2C(=O)NCC2CCCO2)cc1` (stereo unspecified) showed a z-score of -0.456.

With `Cc1ccc2cccc(NC(=O)C(F)(F)F)c2n1`, the z-score was found to be 0.599.

`CN(C)S(=O)(=O)c1cccc(-c2nnc(-c3ccccc3)o2)c1` yielded a z-score of -0.515.

As for `Cc1ccc(O)c(C(=O)c2cc(C#N)c(=O)n(-c3c(C)n(C)n(-c4ccccc4)c3=O)c2)c1`, the z-score was 0.0458.

In the case of `CCc1ccc(NC2CC(=O)N(c3ccc(OC)cc3OC)C2=O)cc1` (stereo unspecified), the z-score worked out at 0.562.

As to `CC(CCc1ccccc1)NC(=O)/C=C/c1ccccc1` (stereo unspecified), the z-score was determined as 0.369.

With `Fc1ccc(CNc2ncnc3c2cnn3-c2ccccc2)cc1`, the z-score came out at 0.365.

`FC(F)(F)c1cnc2c(c1)Nc1ccccc1S2` came in with a z-score of 0.635.

The compound `Cc1ccc(NS(=O)(=O)c2cc([N+](=O)[O-])ccc2NNC(=S)Nc2cccc(Cl)c2)c(C)c1` registered a z-score of -0.12.

`Cc1cc(C)n(/N=C/c2cccc(O)c2)c(=O)c1C(N)=O`: the z-score was -0.999.

With `COc1cc(/C=c2\sc3n(c2=O)C(c2ccccc2)C(c2ccccc2)=NN=3)ccc1O` (stereo unspecified), the z-score is -0.0197.

For `CCOC(=O)C1=C(C)NC(=O)NC1c1c(OCC(=O)N2CCCCC2)ccc2ccccc12` (stereo unspecified), the z-score was -1.27.

Compound `COc1cc(NS(=O)(=O)c2ccc(N/C=C(\C=O)c3nc4cc(Cl)ccc4o3)cc2)nc(OC)n1` yielded a z-score of -0.434.

As for `Cc1n[nH]c(C)c1N1C(=O)c2cccc3c(Br)ccc(c23)C1=O`, the z-score was found to be 1.69.

In turn, `O=C1CC(c2ccc(Cl)cc2)CC(O)=C1C=NCc1ccc(Cl)c(Cl)c1` (stereo unspecified) came in with a z-score of -0.159.

The compound `COc1ccc(-c2ccnc3nc(N4CCN(c5ccccc5)CC4)nn23)cc1` returned a z-score of 0.149.

`COc1ccc(Cc2nnc(SCC(=O)c3cccc([N+](=O)[O-])c3)n2C)cc1` had a z-score of -0.398.

Compound `O=S(=O)([O-])CCC[n+]1c(SCCCS(=O)(=O)O)sc2ccc(Cl)cc21` gave a z-score of -0.198.

The compound `COc1ccc(-c2cn(-c3ccc(OC)cc3)c3[n+]2-c2ccccc2CC3)cc1` gave a z-score of 0.445.

For the compound `C=C(C)CSc1nc2ncc(Cl)cc2[nH]1`, the z-score is -0.0787.

`C(=N\c1nccs1)/c1cccnc1` came in with a z-score of -0.869.

Compound `COc1ccc(Cl)cc1NS(=O)(=O)c1cc(Cl)ccc1OC` returned a z-score of 0.315.

The compound `CCOc1ccccc1N1C(=O)CC(Sc2ncccc2C(=O)O)C1=O` (stereo unspecified) had a z-score of 0.442.

For `COc1ccc(CCNc2c(C)c(C)nc3ncnn23)cc1`, the z-score is -0.00936.

For `CCCCCCC(C)n1[nH]c(=O)c2c(C)cc(=O)[nH]c21` (stereo unspecified), the z-score is -0.224.

`Cc1ccc2nc3c(c(Nc4ccc5c(c4)OCCO5)c2c1)CCC3`: the z-score is -0.499.

The compound `COc1ccc(Nc2cc(C)nc3ncnn23)c(OC)c1` showed a z-score of -0.0948.

`CCCn1c(SCC(=O)NCCc2ccccc2)nnc1-c1ccccn1` displayed a z-score of -0.348.

As to `CCOC(=O)c1c(N=CN(C)C)c(C#N)n2c1CCC2`, the z-score was found to be 0.947.

Consider `CS(=O)(=O)N(CC(=O)N/N=C/c1cccc2c1OCCO2)c1ccccc1Br`, for which the z-score is -0.169.

For the compound `CCOC(=O)/C=C1\SCC(=O)N1CC(O)CN1C(=O)CS/C1=C\C(=O)OCC`, the z-score worked out at 0.722.

`O=c1nc2scc(-c3ccccc3)n2c2ccccc12` yielded a z-score of -0.169.

Compound `CC(=O)N(C)c1ccc(NC(=O)C(F)(F)F)cc1` returned a z-score of -0.055.

Compound `O=C(Nc1ccc2nc(C3CC3)n(Cc3ccc(F)cc3)c(=O)c2c1)c1ccco1` had a z-score of -0.705.

The compound `Cc1nc(C(=O)Nc2ccc(F)cc2)nn1-c1ccc([N+](=O)[O-])cc1` showed a z-score of 0.0551.

`COc1ccc(CCN=C(N)NS(=O)(=O)c2ccccc2)cc1OC` had a z-score of -0.155.

Compound `CCOC(=O)c1c(/N=C/c2ccccc2O)sc2c1CCC2` yielded a z-score of -0.0903.

Compound `CCC(=O)NCCNc1ccc([N+](=O)[O-])cn1` yielded a z-score of -1.5.

Compound `O=C(Nc1cccc(O)c1)c1cc(S(=O)(=O)N2CCCC2)ccc1Cl` showed a z-score of -0.113.

`O=C(NC(=S)Nc1nc2c(s1)CCCC2)c1ccccc1`: the z-score was active: 4.37.

Compound `O=C(CN1C(=O)C2CCCCC2C1=O)Nc1nc(-c2ccccn2)cs1` (stereo unspecified) yielded a z-score of 0.425.

Turning to `NC(=O)Cn1c(=O)n(Cc2ccco2)c(=O)c2c3c(sc21)CCCCC3`, the z-score was determined as 0.0434.

`O=C(COc1ncnc2cc([N+](=O)[O-])ccc12)NCc1ccc2c(c1)OCO2`: the z-score is -0.15.

The compound `COc1ccc(/C=N/Nc2nc3ccccc3c(=O)n2-c2ccccc2)cc1OC` yielded a z-score of -0.0624.

Compound `C=CCNc1ccc(C(=O)O)cc1` registered a z-score of 0.0675.

Regarding `Nc1nnnn1/N=C/c1ccccc1C(F)(F)F`, the z-score is -0.192.

As for `CCOC(=O)c1cnc2c(cnn2C)c1NCCCN(C)C`, the z-score stood at 0.215.

In turn, `CCCc1c(C)c2cccc(C)c2[nH]c1=O` displayed a z-score of -0.141.

With `COc1ccc(CC(NC(C)=O)C(=O)N2CCN(C(=O)Nc3cccc(Cl)c3)CC2)cc1OC` (stereo unspecified), the z-score was found to be 0.122.

Compound `CC1Cc2ccccc2N1C(=O)CSc1nc2cc3c(cc2cc1C#N)OCO3` (stereo unspecified) returned a z-score of 0.268.

With `Cc1ccc(-n2nc(C)c(C(=O)O)n2)c(C)c1`, the z-score amounted to 0.0362.

`Cc1ccc(/C=C/C(=O)OC(C)C(=O)Nc2ccc(Cl)cn2)o1` (stereo unspecified) returned a z-score of 0.397.

Turning to `COC(CNC(=S)Nc1ccc([N+](=O)[O-])cc1)OC`, the z-score was determined as 0.338.

Consider `O=C(Nc1ccccc1Cl)N1CCn2c(nc3ccccc32)C1`, for which the z-score was found to be 0.0418.

`COCCOc1cnn(-c2cc(Oc3ccc(C)cc3)ncn2)c(=O)c1Cl` returned a z-score of -0.318.

As for `CCCC[n+]1ccn(-c2nc3ccccc3nc2[N-]S(=O)(=O)c2ccc(C)cc2)c1`, the z-score worked out at 0.155.

As to `CCn1cc(CNC(=O)CCSc2nc(-c3ccco3)cc(C(F)(F)F)n2)cn1`, the z-score is -0.23.

For `Cc1cccn2c(=O)c3cc(C(=O)NCCc4ccccc4)c(=N)n(CCCn4ccnc4)c3nc12`, the z-score was -0.136.

The compound `Cc1ccccc1/C=N/NC(=O)Cn1nnc(N)n1` yielded a z-score of 1.38.

`O=C(c1ccc(NS(=O)(=O)c2ccccc2)cc1)N1CCCC1` showed a z-score of -0.18.

`Cc1nn(CC#N)c(=O)n1-c1cccc(F)c1` yielded a z-score of -0.292.

`CCCCn1c(Nc2ccccc2)nc2ccccc21`: the z-score was 0.15.

`CCOC(=O)c1[nH]c(C)c(C(=O)OCc2c(C)noc2C)c1C` returned a z-score of 0.625.

In turn, `CCn1c(SCC(=O)NCC2CCCO2)nnc1-c1c[nH]c2ccccc12` (stereo unspecified) showed a z-score of 0.0169.

For `CCCC(c1nnnn1Cc1ccco1)N1CCN(c2cc(Cl)ccc2C)CC1` (stereo unspecified), the z-score worked out at 0.152.

The compound `COc1cc(OC)c(C2C(C(=O)O)c3ccccc3C(=O)N2C)cc1OC` (stereo unspecified) gave a z-score of -0.0582.
